The whole screen tested about 340,000 compounds, of which about 6,900 (2%) were called active. No stated cut-off is given here; in the data, active means inhibition above about 30%; inactive means below that, where a call was filed. This is a selection; strong and weak results do not stand in their true shares. The source gives no active or inactive call for entries shown without one.

The results in this text go back to PubChem BioAssay AID485344 (National Center for Advancing Translational Sciences (NCATS), 2010).

Sequence of UniProt P14416 (P14416 whole entry, looked up): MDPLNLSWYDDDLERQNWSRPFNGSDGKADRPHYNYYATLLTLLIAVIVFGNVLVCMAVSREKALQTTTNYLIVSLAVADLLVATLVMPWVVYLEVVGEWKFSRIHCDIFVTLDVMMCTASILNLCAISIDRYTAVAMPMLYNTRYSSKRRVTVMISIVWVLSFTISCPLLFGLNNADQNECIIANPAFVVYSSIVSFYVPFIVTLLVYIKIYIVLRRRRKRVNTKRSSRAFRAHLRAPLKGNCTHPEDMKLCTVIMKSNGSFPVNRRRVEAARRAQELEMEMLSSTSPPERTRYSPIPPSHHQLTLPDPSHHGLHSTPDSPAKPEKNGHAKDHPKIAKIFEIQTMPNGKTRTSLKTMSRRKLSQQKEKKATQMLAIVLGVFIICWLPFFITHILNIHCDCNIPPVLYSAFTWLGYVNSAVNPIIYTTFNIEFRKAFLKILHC

The test has as its target D(2) dopamine receptor (Homo sapiens) (UniProt P14416). Kind of test: HTS Assay for Allosteric Antagonists of the Human D2 Dopamine Receptor: Primary Screen for Antagonists. Further: 0% is about no effect. To be noted: HEK293 TREx D2 cells, calcium flux, dopamine EC80; at 10 µM; stronger effect = higher value. The essentials:
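Calcium flux kinetic readout in an inducible HEK293 TREx D2 line plated overnight at 30 C. After 180 s compound exposure, an EC80 dopamine challenge follows with another 180 s kinetic read to detect antagonism.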
(In general: A change in cytosolic calcium serves as a functional read-out for many receptors and channels.)
Consider `CCOC(=O)C1CCN(c2cc3c(cc2NC(=O)c2ccc(OC)c(OC)c2)n(C)c(=O)n3C)CC1`, for which the inhibition (in general, the drop in the measured response relative to a control, in per cent) was found to be 1.27%.

`CCC(C)NC(=O)Cn1c(=O)n(CCCC(=O)NCc2ccc(C)cc2)c(=O)c2ccccc21` (stereo not given): the inhibition amounted to 12.6%.

`OCCC1CN(Cc2cccn2-c2ncccn2)CCN1Cc1ccccc1` (stereo not given): the inhibition is active: 30.6%.

For `Cc1cn2c(=O)cc(COc3cc(C)c(Cl)c(C)c3)nc2s1`, the inhibition was -7.96%.

On to `Cc1cc(C)cc(NC(=O)c2sc3nc(-c4ccccc4)cn3c2C)c1`, for which the inhibition stood at 24.7%.

For the compound `CC(=O)Nc1nonc1-c1nnc(SCc2ccc(F)cc2Cl)n1C`, the inhibition turned out to be 16%.

For `Cc1ccc(NC(=O)CN2Cc3ccccc3C2=O)c(C)c1`, the inhibition was 12.2%.

As to `CCOC(=O)c1cccc(NC(=O)CCS(=O)(=O)c2ccc(Br)s2)c1`, the inhibition was -12.9%.

Regarding `COc1ccc(NC(=O)c2cc(-c3ccc4c(c3)OCO4)on2)c(OC)c1`, the inhibition was 7.62%.

Consider `Cc1c(C)n(Cc2ccc(F)cc2)c2ccc(C(=O)N3CCN(c4ccc(Cl)cc4)CC3)cc12`, for which the inhibition was -0.204%.

Regarding `COc1ccc(/C=C/C(=O)Nc2ccc3nc(N4CCC(C)CC4)cc(C)c3c2)cc1OC`, the inhibition turned out to be 4.16%.

Turning to `Cn1c(=O)c2c(nc(SCC(=O)Nc3ccc(F)cc3F)n2Cc2ccccc2)n(C)c1=O`, the inhibition came out at 7.94%.

`CC1(C(=O)NC2CCCCC2)Cc2ccccc2C(=O)N1Cc1ccc(Cl)cc1` (stereo not given): the inhibition was -2.3%.

Regarding `CCCn1c2ccccc2c2cnn(CC(=O)Nc3cccc(C(=O)OCC)c3)c(=O)c21`, the inhibition was -9.52%.

On to `CCOc1ccc(CNC(=O)CN2C(=O)CCn3nc(-c4cn(C)c5ccccc45)cc32)cc1OC`, for which the inhibition is -7.84%.

On to `CN(CCOc1ccccc1)CC(O)COc1ccccc1` (stereo not given), for which the inhibition was active: 51%.

Turning to `O=C(NCc1cccs1)c1nn(-c2ccccc2)nc1CO`, the inhibition was -7.51%.

For `COc1ccc(CCNC(=O)Cc2c(C)c3c(cc(C)c4c(C)c(C)oc43)oc2=O)cc1OC`, the inhibition turned out to be 12.9%.

Consider `Cc1ccc(NC(=O)Cn2c(=O)n(-c3ccc(C)cc3)c(=O)c3ccc(C(=O)NCc4ccccc4Cl)cc32)cc1`, for which the inhibition is 4.15%.

In the case of `Cc1ccc(S(=O)(=O)c2nc(-c3ccco3)oc2SC(C)C)cc1`, the inhibition stood at 20.9%.

With `COc1ccc(C)cc1NC(=O)c1cc2c(s1)-c1ccccc1SC2`, the inhibition was 9.03%.

Turning to `CC(=O)Nc1cc(C(=O)NCc2ccc(F)cc2)ccc1Sc1ccc(C)cc1`, the inhibition was 9.57%.

Take `CC1CCN(S(=O)(=O)c2ccc3ncn(CC(=O)Nc4ccccc4C(F)(F)F)c(=O)c3c2)CC1`: the inhibition was -0.768%.

In the case of `Cc1nn(-c2ccccc2)c(-n2cccc2)c1C(=O)NCc1ccccc1Cl`, the inhibition is -5.59%.

Turning to `CC(=O)Nc1ccc(S(=O)(=O)Nc2ccc(F)c([N+](=O)[O-])c2)cc1`, the inhibition is active: 43%.

As to `O=C1CN(C(=O)c2ccc(Cl)cc2Cl)C(c2ccc(F)cc2)c2cc(F)ccc2N1` (stereo not given), the inhibition amounted to 1.76%.

Consider `Cc1cc(OCC(=O)Nc2cnn(CCCC(=O)O)c2)ccc1Cl`, for which the inhibition was 5.29%.

On to `CN(C)c1ccc(C(CNC(=O)Cc2ccc(Cl)cc2)N2CCOCC2)cc1` (stereo not given), for which the inhibition is -7.63%.

With `CCOC(=O)C1CCN(C(=O)CSc2n[nH]c(-c3ccccc3Cl)n2)CC1`, the inhibition was found to be 2.91%.

Take `CCN(CC)S(=O)(=O)c1ccc2c(c1)c(=O)c(C(=O)N(C)Cc1ccccc1)cn2C`: the inhibition worked out at 8.89%.

Turning to `Cc1cc(C)cc(NC(=O)CSc2nnc(COc3ccccc3Cl)o2)c1`, the inhibition was -14.4%.

Consider `Cc1ccc(C)c(NC(=O)CCCN2C(=O)COc3ccc(C)cc32)c1`, for which the inhibition amounted to 10.5%.

`CN(C)c1ccc(CNC(=O)c2cc3ccccn3n2)cc1`: the inhibition amounted to 2.19%.

Consider `Cn1cnc2c(=O)oc3ccc(S(=O)(=O)N4CCN(c5ccccc5)CC4)cc3c21`, for which the inhibition is 4.01%.

As to `CC(C)(C)OC(=O)N1CCC(c2c(C(=O)Nc3cccc(C(F)(F)F)c3)cnn2-c2ccc(F)cc2F)CC1`, the inhibition stood at 12.4%.

Turning to `COc1ccc(OC)c(NCc2cccn2-c2nnc(N3CCC(C)CC3)s2)c1`, the inhibition is -10.1%.

For `CC(C)(C)OC(=O)N1CCC(c2c(C(=O)Nc3ccc4c(c3)OCCO4)cnn2-c2ccc(F)cc2)CC1`, the inhibition was determined as 5.39%.

With `Cc1ccc(CNC(C)c2ccccc2)s1` (stereo not given), the inhibition is -1.41%.

On to `Cc1cccc(-c2nc3c(cnn3-c3ccccc3)c(=O)n2-c2cccc(Cl)c2)c1`, for which the inhibition was 11.8%.

Consider `O=C(NCCc1ccccc1)c1ccc2c(c1)N(Cc1ccccc1)C(=O)c1ccccc1S2=O` (stereo not given), for which the inhibition was -0.435%.

Turning to `Cc1ccc(CCNC(=O)CN2C(=O)COc3ccc(S(=O)(=O)N4CCCCC4)cc32)cc1`, the inhibition came to 5.9%.

Consider `Cc1ccc(C(CC(=O)NCC2(c3ccccc3)CCCC2)c2ccccc2)c(O)c1` (stereo not given), for which the inhibition was 1.76%.

As to `Cc1ccc(Nc2nnc(-c3ccc(C)c(S(=O)(=O)N4CCCCC4)c3)c3ccccc23)cc1`, the inhibition stood at 8.26%.

On to `O=C(CC1SC(N2CCOCC2)=NC1=O)Nc1ccccc1Cl` (stereo not given), for which the inhibition is active: 39.7%.

On to `CCOc1ccc2c(c1)[C@@H]1C=CC[C@@H]1[C@H](c1ccccc1Cl)N2`, for which the inhibition is 4.54%.

For `COc1ccc(N2CCN(C(=O)C3CCN(S(=O)(=O)Cc4ccccc4)CC3)CC2)cc1`, the inhibition is -4.19%.

Turning to `Cc1ccc(CNC(=O)CN2C(=O)C3(SCC(=O)N3c3cc(C)cc(C)c3)c3ccccc32)cc1` (stereo not given), the inhibition is -15%.

Regarding `Cc1nc(-c2cccc(F)c2)sc1CCNC(=O)c1ccc(F)c(F)c1`, the inhibition came out at 2.08%.

With `CN(C(=O)CSc1nc2ccccc2n1CC(=O)N(C)c1ccc(F)cc1)c1ccccc1`, the inhibition is -6.43%.

With `COC(=O)C1C(O)CCC2CN3CCc4c([nH]c5ccccc45)C3CC21` (stereo not given), the inhibition was active: 49.9%.

In the case of `COc1cc(NC(=O)c2cc(-c3ccc(Cl)c(Cl)c3)on2)cc(OC)c1OC`, the inhibition is -5.05%.

With `Cc1c(CNCCc2ccc(S(N)(=O)=O)cc2)c(C(=O)O)c(C)n1Cc1ccc(Cl)cc1`, the inhibition was -8.61%.

On to `CCCCC(=O)Nc1nnc(S(=O)(=O)N(CC)c2cc(C)cc(C)c2)s1`, for which the inhibition stood at 2.84%.

Take `CCOc1ccc(/C=C(\C#N)C(=O)Nc2sc3c(c2C(=O)OC)C(C(=O)OC)CC3)cc1OC` (stereo not given): the inhibition was -5.68%.

As for `O=C(C1CC1)N1CCc2cc(Br)cc(S(=O)(=O)N3CCN(c4ccccc4)CC3)c21`, the inhibition stood at 5.55%.

As to `CCc1ccc(NS(=O)(=O)c2ccc(C(=O)N(C)C)s2)cc1`, the inhibition is 10.1%.

As for `CCc1ccc(-c2cn3c(n2)sc2cc(C(=O)NCC(C)c4ccccc4)ccc23)cc1` (stereo not given), the inhibition is -17.6%.

For the compound `CCc1ccc(N2CCn3c2nc2c3c(=O)n(Cc3c(F)cccc3Cl)c(=O)n2C)cc1`, the inhibition is 14.3%.

As to `Cc1ccc2nc(NS(=O)(=O)c3ccc(Cl)cc3)c(Nc3ccc(C(=O)O)cc3)nc2c1`, the inhibition turned out to be 3.75%.

On to `Cc1nnc2c(N3CCN(c4ccccc4)CC3)nc3ccc(C(=O)c4ccccc4)cc3n12`, for which the inhibition is -3.31%.

For `Cn1cc(-c2cc3n(n2)CCC(=O)N3CCCC(=O)Nc2ccc(F)cc2F)c2ccccc21`, the inhibition was -5.79%.

As for `CC(=O)N(Cc1cccnc1)c1nc2c(C)cccc2s1`, the inhibition is -28.4%.

`COc1ccc(S(=O)(=O)NCc2ccc3c(c2)CCN3C(=O)c2ccc(C)cc2)cc1Cl`: the inhibition is -6.45%.

In the case of `CCOC(=O)C1CCN(C(=O)Cn2nc(C)n3c(cc4cc(C)ccc43)c2=O)CC1`, the inhibition is -2.99%.

As for `COc1ccc(CCn2c(=O)c3cccnc3n(CC(=O)Nc3cccc(C)c3)c2=O)cc1OC`, the inhibition was found to be 8.56%.

In the case of `Cc1cc2nc(-c3ccc(Br)cc3)cc(C(F)(F)F)n2n1`, the inhibition is -8.26%.

Take `CC1(C)CC(=O)C/C(=N\NC(=O)C2CC23CCC3)C1` (stereo not given): the inhibition is active: 47.1%.

Regarding `N#CCCSc1ncnc2c1oc1ccccc12`, the inhibition was active: 36.2%.

Take `Cc1ccc(NC(=O)CSc2nc3c(oc4ccccc43)c(=O)n2Cc2ccco2)cc1`: the inhibition was 3.8%.

As for `CCN(CC)CCNC(=O)c1ccc(Sc2ccc(C)cc2)c(NC(C)=O)c1`, the inhibition was active: 53.6%.

As for `CCCn1c(=O)c2sccc2n2c(CCCC(=O)N3CCN(c4cccc(C)c4C)CC3)nnc12`, the inhibition was -15%.

Take `CC(C)Oc1ccc(CNC(=O)c2cnc3sc(N4CCCCC4)nn3c2=O)cc1`: the inhibition is 1.88%.

For `N#C/C(=C\c1ccccc1)C(=O)Nc1sc2c(c1C(N)=O)CCC2`, the inhibition amounted to 1.51%.

Take `Cn1cnc(S(=O)(=O)N2CCC(C(=O)N3CCN(c4ccc(Cl)cc4)CC3)CC2)c1`: the inhibition was -5.93%.

Take `CCc1ccccc1NC(=O)C1COc2ccccc2C1` (stereo not given): the inhibition came to 10.3%.

Consider `COc1cc2c(-c3ccc(C)cc3)nc3c(c(C)nn3-c3ccccc3)c2cc1OC`, for which the inhibition was -15.6%.

Consider `Cc1ccc(NC(=O)CCN2C(=O)NC3(CCCC3)C2=O)c(C)c1`, for which the inhibition is active: 50.6%.

`CCc1ccc(Sc2cc(C(=O)NCCCOC(C)C)c3ccccc3n2)cc1`: the inhibition was 4.84%.

Consider `N#Cc1ccc(OC(=O)c2cc(-c3ccc4c(c3)OCCO4)on2)cc1`, for which the inhibition is -2.7%.

As for `Cc1cc(C)cc(OCC(=O)Nc2ccc(Cl)c(-c3nc4ncccc4o3)c2)c1`, the inhibition was found to be 2.37%.

Consider `CCOC(=O)c1oc2ccc(S(=O)(=O)n3nc(-c4cc(OC)cc(OC)c4)cc3N)cc2c1C`, for which the inhibition was determined as 9.42%.

As to `CC(=O)Nc1ccc(-n2c(CCC(=O)O)ccc2-c2ccc(C)cc2)cc1`, the inhibition is -6.43%.

Consider `CCOC(=O)N1CCC(N2CCCC(C(=O)c3ccccc3OC)C2)CC1` (stereo not given), for which the inhibition was active: 70.3%.

Consider `CSc1ccc(CC2C(=O)Nc3ccccc32)cc1` (stereo not given), for which the inhibition came out at 10.9%.

On to `O=C(Cc1ccccc1F)N1CCC(c2nc3c(nnn3Cc3ccc(F)cc3)c(=O)[nH]2)CC1`, for which the inhibition came to 24.6%.

With `CC1CCC(NC(=O)c2cc3c(s2)CS(=O)(=O)C3)CC1` (stereo not given), the inhibition is active: 41.3%.

For the compound `CCc1ccc(NC(=O)C2=CC(c3ccc4c(c3)OCO4)=NS(=O)(=O)N2C)cc1`, the inhibition was -10.7%.

`Cc1ccc(-c2noc(CCC(=O)NCCCN3CCN(c4ccc(F)cc4)CC3)n2)cc1`: the inhibition was active: 60.7%.

For `COc1ccccc1CNC(=O)CSc1ncc2c(n1)-c1cc(Cl)ccc1N(Cc1ccccc1)S2(=O)=O`, the inhibition was determined as 1.17%.

Regarding `Cc1c(C(=O)N(Cc2ccc(Cl)cc2)CC2CCCO2)oc2ccc(F)cc12` (stereo not given), the inhibition is -1.87%.

Regarding `CCOc1ccc(-c2nc(SCC(=O)NCCCOC)c(-c3ccccc3)[nH]2)cc1`, the inhibition is -4.6%.

Regarding `COc1ccc(Cl)cc1NC(=O)CSc1nnc(COc2ccccc2)n1C`, the inhibition is active: 42.8%.

`COc1cc(C(=O)OCc2cc(=O)n3nc(C(C)C)sc3n2)cc(OC)c1OC`: the inhibition was determined as 3.27%.

On to `COc1cc(NC(=O)c2cccc(F)c2)ccc1NC(=O)c1cc2ccccc2o1`, for which the inhibition is -7.04%.

As for `CCOc1ccccc1NC(=O)CN1CCCN(Cc2cccc(Cl)c2)S1(=O)=O`, the inhibition is -3.71%.
